# Read counts are not given, so values of variants with three or more changes are uncertain.
# B1: CPEB3 Ribozyme (parent)
# chain: UAACAGGGGGCCACAGCAGAAGCGUUCACGUCGCAGCCCCUGUCAGAUUCUGGUGAAUCUGCGAAUUCUGCUGUAUAUCUC
# Variants of: B1
# Assay: self-cleavage, relative activity (ratio to wild type); higher = more cleavage; in vitro, sequencing
# Outline: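 Relative activity compares each variant's cleaved/total read fraction with that of the unmutated ribozyme. To get these fractions, barcoded CPEB3 ribozyme libraries from rounds of error-prone PCR were transcribed with T7 RNA polymerase for 5 hours at 37°C and then given 15 min of DNase I treatment before EDTA was added. The RNAs were reverse transcribed with template switching and sequenced on Illumina, and DNA sequencing linked barcodes to variants. A minimum of 5 reads applied, and three batches were averaged.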
row,Variant,self-cleavage
1,A3G U60A U66A,0.26
2,A3G U60A U74C,0.89
3,A3G U60C A64U C71U U78C,0.44
4,A3G U60C U67C G70C,0.26
5,A3G U60G U76A,0.61
6,A3G U66G A75G,0.46
7,A3G U67A U78C,0.49
8,A3G U69A C71U,0.38
9,A3G U69C A77G,0.62
10,A3G U69C U74C,0.39
11,A3G U69C U76C,0.37
12,A3G U72G U74C,1.21
13,A3U A5C A20U G73A C81U,0.31
14,A3U A5C A21U G42U,0.07
15,A3U A5C C12U C34U A75U,0.14
16,A3U A5C G6A A35G U48C,0.06
17,A3U A5C U41A U51G,0.76
18,A3U A5G A15G A18U U25A U43A U72C,0.11
19,A3U A5G A18G U76C,0.81
20,A3U A5G A45U U76C,0.22
21,A3U A5G C11A U58A U69A U76A,0.2
22,A3U A5G C17G U26C,0.68
23,A3U A5G C23A G33A U41C A45G,0.2
24,A3U A5G C32U C37U U43C U76A,0.06

row,Variant,self-cleavage
1,A3U A5G C39G U67A U76C,0.29
2,A3U A5G G7U A18G A28U A35G A65G,0.29
3,A3U A5G G24A U26C G61A,0.6
4,A3U A5G G55U,0.73
5,A3U A5G U25C U41C U49C G63A,0.46
6,A3U A5G U26C A45G U74A,0.54
7,A3U A5G U60C A65G U80C,0.11
8,A3U A5U A13U U51C U66C,0.76
9,A3U A5U A15U A56U A57G,0.52
10,A3U A5U A28C C29U U58C U67A,0.07
11,A3U A5U C40U U60A U69A,0.17
12,A3U A5U U25C U41C,0.12
13,A3U A5U U43A U54C A56U,0.72
14,A3U A5U U48C U58A U69G U74C,0.37
15,A3U A13C A64G U69C,0.4
16,A3U A13G A18G U31C,0.37
17,A3U A13G A35G G52U,1.15
18,A3U A13G A45G U58C A77U,0.11
19,A3U A13G A56G A57G U66A U72C,0.33
20,A3U A13G C17G U25C U26C,0.53
21,A3U A13G C27G A56U U78C U80C,0.05
22,A3U A13G U26C G55A,0.28
23,A3U A13G U31C A64G A65U,0.23
24,A3U A13G U49C U78A,0.46

row,Variant,self-cleavage
1,A3U A13U A15G,0.69
2,A3U A13U A18G U31C A35U U66C U69C,0.05
3,A3U A13U A47G G73U,1.22
4,A3U A13U G19U U51A U69C,0.18
5,A3U A13U U25C G46A A64G,0.13
6,A3U A13U U26A U58C U60A U72A,0.28
7,A3U A13U U51A U58A,0.43
8,A3U A13U U58A A64U,0.2
9,A3U A15C U48C U58A U67C,0.24
10,A3U A15G A20U U49C U51C,0.29
11,A3U A15G A21G U41A U43C,0.12
12,A3U A15G A45G A64U,0.05
13,A3U A15G A47G A64U,0.16
14,A3U A15G C17U,0.77
15,A3U A15G U41A U51C G52A U58C U78C,0.24
16,A3U A15G U49C U74C,0.42
17,A3U A15U U25C A45G U48C G53U G61C,0.18
18,A3U A15U U31A C79A,0.91
19,A3U A15U U41A U60C A65U,0.2
20,A3U A15U U69C U74C U80C,0.39
21,A3U A18C A35U U66C U67C,0.32
22,A3U A18G A28G C39U U54C,0.53
23,A3U A18G A28G U48C,0.11
24,A3U A18G A35G U41C U66C,0.33

row,Variant,self-cleavage
1,A3U A18G C32U A64U,0.06
2,A3U A18G U31A U67A U80C,0.17
3,A3U A18G U41C U66C,0.21
4,A3U A18G U43A,0.54
5,A3U A18G U43C U60C,0.14
6,A3U A18G U48C U67C,0.24
7,A3U A18G U48G A57G U72C,0.27
8,A3U A18G U66C U69C,0.39
9,A3U A18U A20G U58A U66C C79A,0.07
10,A3U A18U G24U A45G,0.15
11,A3U A18U U25C U41C,0.57
12,A3U A18U U49C,0.28
13,A3U A20G A21U A64G,0.25
14,A3U A20G A57G U58C,0.28
15,A3U A20G A75U,1.1
16,A3U A20G G22C U26A U72C,0.06
17,A3U A20G U25C G53A U72C A77U,0.21
18,A3U A20G U25C U43C,0.4
19,A3U A20G U26C U58C U80C,0.11
20,A3U A20G U31A A45U U58C,0.43
21,A3U A20G U43C U67C U78C,0.36
22,A3U A20G U49C U54C,0.41
23,A3U A20G U66C U78A,0.56
24,A3U A20U A28G U72A A75G,0.16

row,Variant,self-cleavage
1,A3U A20U C38A G46A,0.05
2,A3U A20U U49C,0.35
3,A3U A20U U74C,0.35
4,A3U A21G A28G U49C U80C,0.09
5,A3U A21G A45G U51C G63A U80A,0.31
6,A3U A21G C37U U76C U80C,0.54
7,A3U A21G C40U,0.57
8,A3U A21G U25C U31G C59U A64U,0.09
9,A3U A21G U25C U51A U72C,0.08
10,A3U A21G U41A,0.04
11,A3U A21G U41A U48A,0.1
12,A3U A21G U51C U54A U78A,0.68
13,A3U A21G U72G U78A,0.42
14,A3U A21U A28U U54C,0.32
15,A3U A21U U26C G36C C68A G70C A77G,0.03
16,A3U A28C A75G,0.3
17,A3U A28C G55A,0.59
18,A3U A28G C29A U74A,0.49
19,A3U A28G C50U A64G U67A C71G,0.19
20,A3U A28G U43A G53A U72A U74A,0.75
21,A3U A28G U48C G73A U74C,0.68
22,A3U A28U U41C U78C,0.88
23,A3U A35G A47G U48A U69C,0.34
24,A3U A35G C38U U51G,1.3

row,Variant,self-cleavage
1,A3U A35G U58C,1.14
2,A3U A35U C37U,0.36
3,A3U A35U U76C U80A,0.96
4,A3U A45C U51C A56G U58C G61A,0
5,A3U A45G A64U,0.31
6,A3U A45U A56G A64G U74C,0.24
7,A3U A45U A56G A64G U80C,0.17
8,A3U A45U U72G,0.42
9,A3U A47G C71A,0.17
10,A3U A47G U66C U72A,0.35
11,A3U A47G U69A U72C,0.52
12,A3U A47U U54C,0.32
13,A3U A56C U67C U69A U80A,0.21
14,A3U A56G C62U U69A A77G U80A,0.43
15,A3U A57G A65G,0.19
16,A3U A57G U60C U67C,0.22
17,A3U A64G U72A,0.88
18,A3U A75G A77U,1.08
19,A3U A75G U76A,0.9
20,A3U C4U A47G G53A,1.15
21,A3U C4U C23G U51A U72C,0.15
22,A3U C11A A21G,0.51
23,A3U C11A U43C A56G G63A U72C U74C,0.09
24,A3U C11A U72A U78C,0.28

row,Variant,self-cleavage
1,A3U C11G A18G A47U A57U,0.28
2,A3U C11G A20G A21G U69C,0.21
3,A3U C11G A47G A75U,0.78
4,A3U C11U U41G U43C U60A,0.2
5,A3U C11U U51G A64G,0.58
6,A3U C12A A13C U41C U54C,1.24
7,A3U C12G U49C U66C,0.1
8,A3U C12G U69A,0.19
9,A3U C12U A15G,0.55
10,A3U C12U A15U U43C U54C U69C U78C,0.1
11,A3U C12U G24A A65C A77G,0.09
12,A3U C12U U41G U48C U54G A57C,0.06
13,A3U C12U U43C A57G U69G A77U,0.32
14,A3U C12U U51A U69A,1.01
15,A3U C14A A57G C71G U72A,0.55
16,A3U C14U G30A G46C A56U,0.19
17,A3U C14U G33A A77G C79G,0.28
18,A3U C14U U41A A45G U49C G70A,0.08
19,A3U C17G G24U U25G U26C,0.07
20,A3U C17G U26C U49A A56G,0.08
21,A3U C23G A35G U41A C44G U74C,0.14
22,A3U C23G U31A A56G C59U A75G,0.07
23,A3U C23U A57G U58C,0.12

# Source: the RNAGym collection of RNA variant scans (doi:10.1093/nar/gkz1192)
